Assay results as given in PubChem BioAssay AID1963860 (Molecular Pharmacology Branch, DTP, NCI, 2024).
A number of entries come with more than one value. The list is limited to them. An entry can have further records. The records of an entry are repeated measurements in other runs, samples, wells, individuals or studies. A date in brackets names the month of the test. Additions like (4×) count equal records among those shown.

Test system: CN0375-F725-PDC KRAS spheroid viability
Experiment: Anticancer human tumor CN0375-F725-PDC patient-derived colon carcinoma cell line growth inhibition [KRAS2]
Conditions: spheroids with HUVEC and MSC; for viability, T/C: stronger effect = lower value; for IC50: compound alone
Text: Multicellular complex tumor spheroid response to RAS pathway inhibitors in combination with a targeted agents in patient-derived cell lines with oncogenic KRAS variants from multiple cancer types
A high-throughput screen of multi-cell type tumor spheroids was designed to identify active combinations of targeted small molecules and KRAS pathway inhibitors. Complex spheroids include a stromal component modeled by human endothelial cells (HUVEC) and fibroblasts modeled by human mesenchymal stem cells (MSCs). The concentration ranges selected for each drug and investigational agent were based upon clinically achievable concentrations if the clinical Cmax of the agent was known.
Compounds. The drugs and investigational agents: BI-3406 (NSC825286), BAY-293 (NSC824723), batoprotafib (TNO155; NSC825523), sotorasib (AMG 510; NSC818433), MRTX1257 (NSC819558), elimusertib (BAY 1895344; NSC800525), molibresib (GSK525762; NSC774829), temuterkib (LY3214996; NSC803410), venetoclax (NSC766270), alisertib (NSC759677), olaparib (NSC753686), talazoparib (NSC767125), erdafitinib (NSC781556), ipatasertib (NSC767898), cabozantinib (NSC761068), nintedanib (NSC756659), abemaciclib (NSC768073), docetaxel (NSC628503), trametinib (NSC758246), and sapanisertib (NSC764658) were obtained from the National Cancer Institute (NCI) Developmental Therapeutics Program Chemical Repository. The FDA-approved anticancer drug set is available from the Developmental Therapeutics Program. […] The stock solutions were prepared in dimethyl sulfoxide (DMSO, Sigma-Aldrich, St. Louis, MO, cat. D2650) at 800-fold the tested concentration and stored at -70 degrees C prior to their use. All drugs and investigational agents were tested over a range starting from a high concentration at or near the clinical Cmax and decreasing in half-log increments. If the clinical Cmax for an agent had not been determined, the highest concentration tested was 10 microM.
Cell Culture. All cells were maintained in an incubator at 37 degrees C and 5% CO2 with 95% humidity. The PDC lines were cultured according to standard operating procedures established by the NCI PDMR (https://pdmr.cancer.gov/sops/default.htm). Briefly, all PDCs were thawed and cultured in Matrigel-coated flasks prepared with a working solution of 1X Ham's F-12 nutrient mix, without supplementation (Invitrogen, Waltham, MA, cat. 11765054), 100 U/mL penicillin-streptomycin (Invitrogen, cat. 15140122), and 2.5% Matrigel (Corning Inc., Corning, NY, cat. 354248) for the first three passages. All PDCs were cultured in complete DMEM/F-12 media containing advanced DMEM/F-12 (Invitrogen, cat. 12634028), 4.9% defined fetal bovine serum, heat inactivated (HyClone Laboratories Inc., Logan, UT, cat. SH30070.03HI), 389 ng/mL hydrocortisone (Sigma-Aldrich, cat. H4001), 9.7 ng/mL human EGF recombinant protein (Invitrogen, cat. PHG0313), 23.4 microg/mL adenine (Sigma-Aldrich, cat. A2786), 97.3 U/mL penicillin-streptomycin (Invitrogen, cat. 15140122), 1.9 mM L-glutamine (Invitrogen, cat. 25030081), and 9.7 microM Y-27632 dihydrochloride (Tocris Bioscience, Bristol, United Kingdom, cat. 1254). The PDCs were cultured in complete DMEM/F12 media without 9.7 microM Y-27632 dihydrochloride for at least two passages prior to the screen. The established cell line HOP-62 was cultured in RPMI 1640 medium, HEPES (Invitrogen, cat. 22400105) with 10% defined fetal bovine serum (HyClone Laboratories Inc., cat. SH30070.03) and 2 mM L-glutamine (Invitrogen, cat. 25030081). The pooled donor HUVEC were cultured in endothelial cell growth medium 2 (PromoCell, Heidelberg, Germany, cat. C-22011) and the hMSC were cultured in mesenchymal stem cell growth medium 2 (PromoCell, cat. C-28009). For all experiments, HUVEC and hMSC were used at passages </=5, while the malignant cell lines were used at passages </=15. […]
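Also: spheroids exposed to agents for 7 days.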

| IC50 | SMILES | viability, T/C (compound alone 3.16 µM) | viability, T/C (compound alone 1 µM) | IC50 (run of 08/19/2021) | viability, T/C (compound alone 10 µM) |
| --- | --- | --- | --- | --- | --- |
|  | COC(=O)c1ccc2c(C(=Nc3ccc(N(C)C(=O)CN4CCN(C)CC4)cc3)c3ccccc3)c(O)[nH]c2c1 | 58.6, 64.4, 30.1, 45.6, 49.5% |  |  |  |
|  | CNCc1ccccc1-c1csc(C(C)Nc2nc(C)nc3cc(OC)c(OC)cc23)c1 (configuration not stated) | 100, 0.63, 0.66, 0.45, 0.73, 0.69, 0.29, 0.27, 0.22, 0.26, 0.28% [2021-08] and 0.48, 2.07, 0.73, 0.6, 0.28, 0.39% [2021-09] | 93.5, 94.1, 83.4, 92.4, 50.2, 62.6, 47.3, 55.8, 34.4, 49.5, 55% [2021-08] and 67.1, 65.6, 65.5, 69.9, 52, 58.8% [2021-09] | 5.57 µM, 1.72 µM, 1.59 µM, 1.7 µM, 974 nM, 1.26 µM |  |
|  | CC1OCC2(CCN(c3cnc(Sc4ccnc(N)c4Cl)c(N)n3)CC2)C1N (configuration not stated) |  | 94.8, 95.1, 104, 82.8, 86.4, 88, 87.4, 84.1, 82.5, 87.5% [2021-08] and 84.5, 85.3, 90.8, 76.3, 78.3, 79, 77.6, 80.3, 85.2% [2021-09] |  | 71.3, 91.5, 74.7, 70.2, 63.3, 66.3, 65.3, 71, 64.2, 68.5, 72.8% [2021-08] and 65.5, 65.8, 67 (2×), 65, 63.4, 65.6, 69.9, 66.3% [2021-09] |
|  | C=CC(=O)N1CCN(c2nc(OCC3CCCN3C)nc3c2CCN(c2cccc4cccc(C)c24)C3)CC1CC#N (configuration not stated) | 108, 19.1, 25.4, 26.4, 19, 21.9, 3.49, 19.4, 8.94, 4.44, 26.1% [2021-08] and 29.4, 38.6, 32.2, 28.7, 22.1, 26.1% [2021-09] |  | > 3.16 µM, 1.95 µM, 2.14 µM, 2.13 µM, 1.88 µM, 1.91 µM |  |
| 6.01 µM, 4.34 µM, 5.85 µM, > 10 µM | CC1(C)CCC(CN2CCN(c3ccc(C(=O)NS(=O)(=O)c4ccc(NCC5CCOCC5)c([N+](=O)[O-])c4)c(Oc4cnc5[nH]ccc5c4)c3)CC2)=C(c2ccc(Cl)cc2)C1 |  |  |  | 40.1, 22, 32, 56.3, 54% |
|  | COc1cc2nc(C)nc(NC(C)c3cc(N)cc(C(F)(F)F)c3)c2cc1OC1CCOC1 (configuration not stated) |  |  | > 10 µM, 5.64 µM, 5.74 µM, 5.45 µM | 64.5, 70.9, 79.8, 19.1, 18.1, 11.3, 12, 17.2, 18.2, 11.8, 15.4% [2021-08] and 12.9, 14.3, 12.7, 21.6, 13.8, 18.2% [2021-09] |
